Measurements as given in publication PMC3713520.
Residue numbers refer to the chain shown, from its start. No constants are given. Whether binding was seen depends on the method and setting. For some assays here: In cells and extracts the contact can be indirect. Some results given as binding are weak or reduced against the parent protein; the word gives no strength. Sequences can lack the tags named with a protein. Values belong to the molecule of their own block, whether it stands above or below them.

Protein sequences, listed by entry. Tags and fused reporters are not part of them. Lines headed by an entry give the natural chain unless they say otherwise; changes in a name come on top. Residues count along the entry.
UniProt Q96D31: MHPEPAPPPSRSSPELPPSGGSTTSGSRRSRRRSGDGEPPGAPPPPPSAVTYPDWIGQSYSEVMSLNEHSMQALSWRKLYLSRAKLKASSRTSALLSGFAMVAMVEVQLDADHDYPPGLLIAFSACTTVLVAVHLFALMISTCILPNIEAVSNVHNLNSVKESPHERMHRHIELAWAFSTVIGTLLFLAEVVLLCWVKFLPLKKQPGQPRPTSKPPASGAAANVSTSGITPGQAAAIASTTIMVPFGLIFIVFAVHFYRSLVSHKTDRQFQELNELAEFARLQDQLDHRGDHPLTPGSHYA
GST-Orai1-NT (1–87aa): residues 1-87 of Q96D31
GST-Orai1-CT (228–301aa): residues 228-301 of Q96D31
UniProt Q13586: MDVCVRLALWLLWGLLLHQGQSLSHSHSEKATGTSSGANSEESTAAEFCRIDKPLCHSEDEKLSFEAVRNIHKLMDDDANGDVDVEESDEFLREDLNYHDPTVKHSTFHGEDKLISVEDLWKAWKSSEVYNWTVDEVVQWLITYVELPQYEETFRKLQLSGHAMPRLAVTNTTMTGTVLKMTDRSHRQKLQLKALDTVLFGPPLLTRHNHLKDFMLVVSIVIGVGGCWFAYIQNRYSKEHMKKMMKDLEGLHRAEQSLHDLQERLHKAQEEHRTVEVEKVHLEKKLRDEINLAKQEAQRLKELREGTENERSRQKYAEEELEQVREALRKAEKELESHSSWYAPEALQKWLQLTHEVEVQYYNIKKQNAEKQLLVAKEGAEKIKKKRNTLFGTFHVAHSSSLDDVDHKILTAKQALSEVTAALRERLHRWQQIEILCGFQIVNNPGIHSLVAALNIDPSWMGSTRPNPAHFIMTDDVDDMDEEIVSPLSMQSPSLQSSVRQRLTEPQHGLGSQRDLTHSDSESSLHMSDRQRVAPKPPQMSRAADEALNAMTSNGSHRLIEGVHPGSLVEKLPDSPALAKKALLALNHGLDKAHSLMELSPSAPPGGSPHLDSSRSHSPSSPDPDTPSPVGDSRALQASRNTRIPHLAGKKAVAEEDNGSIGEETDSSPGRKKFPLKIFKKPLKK
GST-CC1-CAD (235–448aa): residues 235-448 of Q13586
GST-CAD (342–448aa): residues 342-448 of Q13586

Columns and labels:
YFP-α-SNAP (human) = target: T1, YFP-α-SNAP (human) (UniProt P54920); experiment: co-IP; whole cell lysates of store-depleted HEK 293 cells co-expressing the two proteins; lysis in 1% CHAPS or 1% NP-40, 150 mM NaCl, 50 mM Tris pH 8.0; IP with anti-Myc, anti-Flag, anti-GFP or anti-α-SNAP antibody overnight at 4°C, Protein A Sepharose; Western blot
T1 sequence: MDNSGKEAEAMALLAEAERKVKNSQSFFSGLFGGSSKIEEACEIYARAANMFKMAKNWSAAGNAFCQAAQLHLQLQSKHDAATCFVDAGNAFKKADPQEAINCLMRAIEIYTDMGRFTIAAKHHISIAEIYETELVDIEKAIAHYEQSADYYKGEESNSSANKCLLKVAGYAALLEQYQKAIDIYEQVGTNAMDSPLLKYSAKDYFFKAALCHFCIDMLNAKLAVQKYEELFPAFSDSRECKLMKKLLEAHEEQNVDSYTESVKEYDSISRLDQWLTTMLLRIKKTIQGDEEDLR

YFP-α-SNAP-L294A (human) = target: T2, YFP-α-SNAP-L294A (human) (UniProt P54920); experiment: as above
T2 sequence: T1 sequence with L294A

[1] = target: T3, α-SNAP (without YFP, expressed in HEK 293 cells) (human) (UniProt P54920); experiment: as above
T3 sequence: T1 sequence

Flag-Orai1 (human) [2] = target: Flag-Orai1 (human) (UniProt Q96D31); experiment: as above
Stim1-Myc [3] = target: Stim1-Myc (UniProt Q13586); experiment: as above
GST-CAD (342–448aa) = GST-CAD (342–448aa) (UniProt Q13586); experiment: pull-down; GST-tagged Stim1 or Orai1 fragments from E. coli immobilised on glutathione resin, incubated with purified His-α-SNAP (10 nM) for 1 hr; washed; Western blot with anti-α-SNAP; both purified
GST-CC1-CAD (235–448aa) = GST-CC1-CAD (235–448aa) (UniProt Q13586); experiment: as above
[4] = target: GST-Orai1-CT (228–301aa) (human) (UniProt Q96D31); experiment: as above
[5] = target: GST-Orai1-NT (1–87aa) (human) (UniProt Q96D31); experiment: as above
Flag-Orai1 (human) [6] = target: Flag-Orai1 (human) (UniProt Q96D31); experiment: pull-down; purified recombinant α-SNAP (100 nM) incubated 1 hr at 4°C with Flag-Orai1, Flag-TRPC6 or Stim1-Myc immunoprecipitates bound to Protein A Sepharose beads; beads washed three times; Western blot with anti-α-SNAP; only the binder purified
Flag-TRPC6 = target: T4, Flag-TRPC6 (UniProt Q9Y210); experiment: as above
T4 sequence: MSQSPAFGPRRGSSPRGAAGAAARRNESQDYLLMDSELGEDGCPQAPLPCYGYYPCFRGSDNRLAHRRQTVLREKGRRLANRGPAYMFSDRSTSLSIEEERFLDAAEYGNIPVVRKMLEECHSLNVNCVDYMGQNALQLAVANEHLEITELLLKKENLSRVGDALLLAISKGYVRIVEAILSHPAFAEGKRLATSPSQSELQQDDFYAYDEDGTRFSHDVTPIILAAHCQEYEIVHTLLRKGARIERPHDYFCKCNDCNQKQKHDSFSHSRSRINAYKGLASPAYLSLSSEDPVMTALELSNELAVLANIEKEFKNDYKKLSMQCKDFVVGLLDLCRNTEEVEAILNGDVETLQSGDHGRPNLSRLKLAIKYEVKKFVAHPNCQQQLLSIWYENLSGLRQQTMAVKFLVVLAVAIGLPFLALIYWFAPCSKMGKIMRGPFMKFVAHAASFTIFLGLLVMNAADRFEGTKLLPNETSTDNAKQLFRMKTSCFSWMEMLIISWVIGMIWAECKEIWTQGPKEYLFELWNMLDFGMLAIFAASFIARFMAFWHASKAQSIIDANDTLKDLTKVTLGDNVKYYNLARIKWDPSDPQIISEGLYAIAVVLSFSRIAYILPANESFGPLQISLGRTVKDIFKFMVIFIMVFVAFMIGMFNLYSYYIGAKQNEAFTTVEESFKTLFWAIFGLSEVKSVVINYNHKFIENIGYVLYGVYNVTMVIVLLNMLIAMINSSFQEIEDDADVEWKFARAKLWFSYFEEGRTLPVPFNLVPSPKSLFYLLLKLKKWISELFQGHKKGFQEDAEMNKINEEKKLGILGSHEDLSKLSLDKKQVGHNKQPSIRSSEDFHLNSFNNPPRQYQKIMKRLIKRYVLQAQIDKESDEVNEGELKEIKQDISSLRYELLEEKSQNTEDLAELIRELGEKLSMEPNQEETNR

Stim1-Myc [7] = target: Stim1-Myc (UniProt Q13586); experiment: as above

binding (YFP-α-SNAP (human)): binds
binding (YFP-α-SNAP-L294A (human)): binds
binding [1]: binds
Molecule: Flag-Orai1 (from UniProt Q96D31 1-301)

binding (YFP-α-SNAP (human)): binds
binding (YFP-α-SNAP-L294A (human)): binds
Molecule: Stim1-Myc (from UniProt Q13586 23-685)

binding (Flag-Orai1 (human) [2]): binds
binding (Stim1-Myc [3]): binds
B1: YFP-α-SNAP (protein, UniProt P54920 1-295)
chain: T1 sequence

binding (GST-CAD (342–448aa)): binds
binding [4]: binds
binding [5]: binds weakly
binding (Flag-Orai1 (human) [6]): binds
binding (Flag-TRPC6): no binding (tested: 100 nM)
binding (Stim1-Myc [7]): binds
B2: purified recombinant α-SNAP (His-α-SNAP) (protein, UniProt P54920 1-295)
chain: T1 sequence
binding (GST-CC1-CAD (235–448aa)): binds weakly
